Data as given in PMC4336329 (PLoS ONE, 2015).
In all, about 310,000 compounds went through this assay and about 14,000 (4.5%) showed an effect of 50% or more. Effects have a minus sign here. Some of the results follow.

What follows are compounds tested against human ether-à-go-go-related gene (hERG) potassium channel (human, UniProt Q12809) (assay: primary screen, population patch clamp on CHO cells stably expressing hERG).
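Also: peak tail current of the secondary pulse compared with the same well before compound.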

Sequence of human ether-à-go-go-related gene (hERG) potassium channel (Q12809 whole entry, looked up): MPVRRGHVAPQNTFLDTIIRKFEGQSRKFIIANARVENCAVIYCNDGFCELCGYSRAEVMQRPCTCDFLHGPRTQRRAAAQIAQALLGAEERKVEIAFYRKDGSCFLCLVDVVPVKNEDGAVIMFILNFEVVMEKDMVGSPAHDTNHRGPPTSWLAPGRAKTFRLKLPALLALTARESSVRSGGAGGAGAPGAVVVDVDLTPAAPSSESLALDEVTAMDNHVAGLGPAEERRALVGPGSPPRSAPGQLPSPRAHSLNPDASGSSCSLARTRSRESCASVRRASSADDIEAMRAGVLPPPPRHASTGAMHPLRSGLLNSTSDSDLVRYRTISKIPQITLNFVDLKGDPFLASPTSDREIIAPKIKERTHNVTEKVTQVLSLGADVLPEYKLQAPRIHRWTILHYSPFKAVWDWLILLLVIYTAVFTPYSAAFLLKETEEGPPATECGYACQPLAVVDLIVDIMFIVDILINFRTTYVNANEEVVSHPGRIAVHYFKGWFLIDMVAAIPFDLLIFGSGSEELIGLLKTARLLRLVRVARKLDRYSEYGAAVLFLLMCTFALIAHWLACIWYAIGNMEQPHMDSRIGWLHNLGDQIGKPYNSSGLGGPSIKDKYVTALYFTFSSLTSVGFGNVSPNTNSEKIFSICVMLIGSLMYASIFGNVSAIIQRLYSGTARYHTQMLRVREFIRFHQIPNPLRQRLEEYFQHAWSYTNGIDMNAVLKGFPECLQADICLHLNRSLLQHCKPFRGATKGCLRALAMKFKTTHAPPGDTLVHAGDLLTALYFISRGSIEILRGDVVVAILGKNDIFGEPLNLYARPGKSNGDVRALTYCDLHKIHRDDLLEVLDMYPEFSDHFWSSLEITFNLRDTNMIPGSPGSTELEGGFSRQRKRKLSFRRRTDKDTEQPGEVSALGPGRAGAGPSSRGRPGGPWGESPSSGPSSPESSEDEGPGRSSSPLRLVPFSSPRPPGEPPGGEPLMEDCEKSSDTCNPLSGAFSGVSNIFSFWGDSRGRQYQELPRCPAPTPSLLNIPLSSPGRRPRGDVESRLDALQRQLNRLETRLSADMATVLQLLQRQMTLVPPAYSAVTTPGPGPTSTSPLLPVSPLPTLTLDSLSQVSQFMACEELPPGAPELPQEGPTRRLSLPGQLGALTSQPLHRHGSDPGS

SMILES	hERG current change (%, negative = inhibition) at 10uM [%]
CC(C)(C)n1nc2c(c1NC(=O)c1cc(Cl)ccc1[N+](=O)[O-])CS(=O)(=O)C2	9.6
O=C(O)Cn1cc(C(=O)c2ccccc2F)c2ccccc21	26.7
O=S(=O)(Nc1cccc(-c2nc3cccnc3s2)c1)c1cccs1	10.5
O=C(CCC(=O)N1CCOCC1)NCCc1ccc(Cl)cc1Cl	-14.5
Cc1nn(-c2ccccc2)c2nc(=O)n(-c3ccccc3)cc12	-10.9
CCOCC(O)CS(=O)Cc1ccccc1 (centres unmarked)	6.71
CCCS(=O)(=O)N1CCCC(C(=O)N2CCCCC2)C1 (centres unmarked)	20.7
CC(=O)c1cnc2c(-c3ccccc3)cnn2c1C	-5.87
Cc1cccc(C2c3[nH]c4ccccc4c3CCN2C(=O)c2cc(-c3cccn3C)n[nH]2)n1 (centres unmarked)	13.1
CCc1cc(C(=O)N/N=C/c2ccc(O)cc2O)c2ccccc2n1	7.07
CN(c1ccccc1)S(=O)(=O)c1cccc(C(=O)Nc2nn[nH]n2)c1	2.37
O=C(Nc1cc(Cl)cc(Cl)c1)c1ccc(Cn2c(=O)[nH]c3ccsc3c2=O)cc1	0.28
O=C(NC1CCCCC1)C1c2ccccc2C(=O)N1Cc1ccco1 (centres unmarked)	-22.9
COc1ccc(Cl)cc1C(=O)C1CCCN(CCO)C1 (centres unmarked)	-11.2
O=C1CN(C(=O)c2cc3ccccc3oc2=O)C(c2ccc(F)cc2)c2cc(F)ccc2N1 (centres unmarked)	-32.1
COc1ccc([C@@H]2CC=C(C(=O)O)[C@H](c3ccccc3)N2S(=O)(=O)c2ccccc2C)cc1	19.6
CCOc1ccc(CSC(=N)N)cc1.Cl	-2.44
COc1ccc(CNC(=O)Oc2ccccc2)cc1Cl	-12.7
COc1ccc(C(=O)NC2CCN(Cc3c(F)cccc3Cl)CC2)cc1OC	-1.46
CC1(C)CC(=O)C2=C(C1)NC(=O)CC2c1ccccc1F (centres unmarked)	-4.52
CCN(CC)c1ccc(/C=N/NC(=O)c2ccccn2)cc1	-5.37
CC(C)OCCCNC(=O)CCCC(=O)Nc1ccc(OCCc2ccccc2)cc1	3.85

SMILES	hERG current change (%, negative = inhibition) at 10uM [%]
C=COCCNC(=O)Nc1ccc(Cl)cc1Cl	2.05
Cc1ccc([N+](=O)[O-])cc1S(=O)(=O)N1CCCN(C)CC1.Cl	8.94
CNCc1ccccc1OCc1ccccc1F.Cl	-4.37
O=C1NN(c2ccccc2)C(=O)/C1=C\c1cccc(OC(=O)c2cccs2)c1	7.65
CCOc1ccccc1Oc1cn[nH]c1-c1ccc(O)cc1O	-3.75
C=CCNc1nc(Nc2ccccc2F)nc(OCC)n1	-11.1
COc1cc(/C=C(\C#N)c2[nH]nc(N)c2C#N)cc(OC)c1O	18.1
COc1cc(NS(=O)(=O)c2ccc(NC(=S)NC(=O)c3ccc(F)cc3)cc2)nc(OC)n1	3.73
CN(C)CCCN(Cc1cc2cc3c(cc2[nH]c1=O)OCO3)C(=S)Nc1cccc(Cl)c1	-45.7
O=C(CCc1ccccc1)NNC(=S)Nc1ccc(F)cc1	10.5
CCOc1ccccc1C1CC(c2ccc(Br)cc2)Nc2nc(N)nn21 (centres unmarked)	-55.1
Cc1ccc(NS(=O)(=O)c2ccc(Br)s2)cc1S(=O)(=O)N1CCOCC1	20.5
CC(=O)Nc1ccccc1NC(=O)c1cc(C)cc(C)c1	20.1
CC1C(=O)C(C)C(c2ccccc2F)NC1c1ccccc1F (centres unmarked)	9.43
O=C(Cc1ccc(Nc2nc(=S)[nH]c3ccccc23)cc1)NC1CCCCC1	29
COc1ccc(OC)c(C(=O)c2ccc(C(=O)Nc3cccc4ccccc34)cc2)c1	9.47
CC(C)CC1NC(=O)N(CC(=O)c2ccc3c(c2)OCCO3)C1=O (centres unmarked)	6.78
Cc1ccc(Cl)cc1N1CCN(S(=O)(=O)c2cc3c(cc2C)NC(=O)CO3)CC1	11.3
O=C(Nc1ccc2[nH]ncc2c1)C1CCC1	10.1
CC(c1ccon1)N(C)C(=O)c1ccc2nc(Cc3cccc(Cl)c3)oc2c1 (centres unmarked)	-42.7
COc1cccc([C@@H]2Oc3ccc(OC)cc3C(=O)[C@H]2OC(=O)N[C@H](C)C2CCCCC2)c1	7.6
CCN(CC)S(=O)(=O)c1csc(C(=O)Nc2ccccn2)c1	-9.44
